Experiments:
[1] = NPY fluorescently labeled at residue 1, ref Khan et al. [2007]; cited from earlier work
Excerpt: Abid et al. proposed that the C-terminal tyrosine in NPY is cleaved off by plasma kallikrein. […] In contrast to the cleavage products found by Abid et al., and in agreement with the data presented here on PYY degradation, Khan et al. ([2007]) ...

[2] = in situ perfusion of the rat liver, concentrations up to 500 pmol/L; ref Beckh et al. [1992]; cited from earlier work
Excerpt: An earlier study by Beckh et al., employing in situ perfusion of the rat liver, has shown a lower hepatic extraction of PYY (up to 10% in concentrations up to 500 pmol/L) (Beckh et al. [1992]), but the PYY assay they used most likely could not detect C-terminal changes; this would be in ...

[3] = pig, in vivo
[4] = In vitro degradation of PYY in porcine plasma; type: in vitro ADME, pig; settings: 37°C
[5] = In vitro degradation of PYY in porcine whole blood; type: in vitro ADME, pig; settings: 37°C

Row | Substance | peptide degraded after 24 h in human plasma [1] [%] | hepatic extraction of PYY in perfused rat liver [2] | hepatic extraction, total PYY assay [3] | renal extraction ratio, total PYY assay [3] | PYY preserved after 24 h with EDTA, plasma ([4]; heparinized porcine plasma, 24 h, + EDTA 10 mmol/L, RIA, degradation no longer first-order) | share of total immunoactive PYY C-terminally truncated after 6 h, plasma ([4]; porcine plasma, 6 h, PYY3–34 RIA versus total PYY RIA) | PYY preserved after 24 h with EDTA, blood ([5]; heparinized porcine whole blood, 24 h, + EDTA 10 mmol/L, RIA, degradation no longer first-order) | share of total immunoactive PYY C-terminally truncated after 6 h, blood ([5]; porcine blood, 6 h, PYY3–34 RIA versus total PYY RIA)
1 | NPY: Neuropeptide Y, PP-family peptide related to PYY; literature data of Khan et al. | 50 |  |  |  |  |  |  | 
2 | PYY: Peptide YY immunoreactivity by side-viewing antibody, recognizes PYY1/3–36 and PYY1/3–34 equally; form not specified at the place |  | up to 10% | no significant hepatic extraction | about 20% | more than 80% | approximately 40% | more than 80% | approximately 40%

Reference: paper PMC4552532 (Physiological Reports, 2015)
